# According to PubChem BioAssay (NCATS):
# Several values for one entry are separate records, joined by “and”; a condition that tells them apart may be missing. Equal values may be shown once. The inconclusive results got no clear call from the source; some entries with a clear call stand among them for comparison. A potency beside an inconclusive call is a rough fit, not a confirmed value. More than one record can exist for a structure, and the calls need not agree. Activity calls are given as the source filed them. Calls follow the shape of the dose curve; as a rule, active = well fitted inhibition curve with a large enough effect; inconclusive = small, poorly fitted or top-dose-only effect; inactive = flat fitted curve, though single readings scatter.
# Experiment: P-glycoprotein substrates identified in KB-8-5-11 adenocarcinoma cell line, qHTS therapeutic library screen (AID 1346987); also: nearly all actives have a fitted effect of over 65% in size
# Settings: KB-8-5-11 (P-gp overexpressing) viability, CellTiter-Glo, 72 h; series mostly up to 44.5 µM
# Method in brief: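 KB-8-5-11: colchicine-selected sub-line of KB-3-1 over-expressing P-gp; assay medium lacked colchicine. 72 h drug exposure at 37 degree C, CellTiter-Glo.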
# Potency is read from the fitted curve at half-maximal effect; tags tell the direction and shape of the fitted curve.
row,SMILES,Potency
1,O=C1NC(=O)C(c2cnc3ccccn23)=C1c1cn2c3c(cccc13)CN(C(=O)N1CCOCC1)CC2,"inconclusive: 29.1 µM [inhibitor, single point]"
2,CC(C)c1cnn2c(NCc3ccccc3)cc(N[C@@H](CO)[C@H](O)CO)nc12,active: 1.18 µM and active: 4.61 µM
3,CNc1nc(-c2ccc3c(N)n[nH]c3c2)cc(N2C[C@@H](C(=O)NC3CCCCC3)CC[C@@H]2C)n1,"inconclusive: 23.5 µM [inhibitor, partial curve]"
4,COc1cc2ncnc(Nc3cccc(Cl)c3)c2cc1OC,"active: 8.33 µM and active: 16.4 µM and inconclusive: 18.4 µM [inhibitor, single point]"
5,CCC[C@H](Nc1nc(-c2ccc(NC(=O)NCC)c(OC)c2)ncc1C)c1cccnc1,inconclusive: 0.0008 µM [inhibitor]
6,CC(=CC(=O)Nc1ccccc1C(=O)O)c1ccc2ccccc2c1,"inconclusive: 37.2 µM [inhibitor, single point]"
7,CN1CCc2c(n(Cc3ccc(C(=O)NO)cc3)c3ccccc23)C1,"inconclusive: 29.6 µM [inhibitor, single point] and inconclusive: 18.4 µM [inhibitor, single point]"
8,Cc1cnc(CNC(=O)c2c(=O)c3ccc(N4CCCN(C)CC4)nc3n3c2sc2ccccc23)cn1,"inconclusive: 7.24 µM [inhibitor, partial curve] and inconclusive: 376 nM [inhibitor, full curve]"
9,COc1ccc(Nc2cc(-c3cnc(N)nc3)nc(N3CCOCC3)n2)cn1,"active: 1.48 µM and inconclusive: 1.64 µM [inhibitor, full curve]"
10,CC(C)(O)Cn1c(NC(=O)c2ccc(-c3cn[nH]c3)s2)nc2cc(CN3CCOCC3)ccc21,active: 3.72 µM
11,O=C(CCCN1CCN(c2ccc(F)cc2)CC1)NC1c2ccccc2CSc2ccccc21 (configuration not stated),"inconclusive: 3.72 µM [inhibitor, full curve]"
12,CCOC(=O)C1=C(C)NC2=C(C(=O)CC(C)(C)C2)C1c1ccc(-c2ccccc2)cc1 (configuration not stated),active: 23.1 µM
13,CNC(=O)c1ccc(N2C(=S)N(c3cnc(C#N)c(C(F)(F)F)c3)C(=O)C23CCC3)cc1F,"inactive and inconclusive: 10.3 µM [inhibitor, partial curve, poor fit]"
14,C[C@]12C=CC(=O)N[C@@H]1CC[C@H]1[C@H]3CC[C@@H](C(=O)Nc4cc(C(F)(F)F)ccc4C(F)(F)F)[C@@]3(C)CC[C@@H]12,inactive
15,NC(=O)c1ncn([C@@H]2O[C@H](CO)[C@@H](O)[C@@H]2O)n1,inactive
16,CNC(=O)c1ccccc1Nc1nc(Nc2ccc(N3CCOCC3)cc2OC)ncc1Cl,active: 1.87 µM and active: 1.64 µM
17,NC(=O)NO,active: 1.66 µM
18,CC(=O)[C@]1(O)Cc2c(O)c3c(c(O)c2[C@@H](O[C@H]2C[C@H](N)[C@@H](O)[C@H](C)O2)C1)C(=O)c1ccccc1C3=O,active: 0.833 µM
19,O=C(c1ccc(OCCN2CCCCC2)cc1)c1c(-c2ccc(O)cc2)sc2cc(O)ccc12,"inconclusive: 14.6 µM [inhibitor, single point] and inconclusive: 37.2 µM [inhibitor, single point] and inconclusive: 29.1 µM [inhibitor, single point]"

row,SMILES,Potency
1,CCOC(=O)N1CCN([N+]([O-])=NOc2ccc([N+](=O)[O-])cc2C#N)CC1,"inconclusive: 33.2 µM [inhibitor, single point]"
2,CCC(C=C[C@@H]1OC(=O)C=C[C@H]1C)=C[C@H](C)CC=CC(C)=C[C@@H](C)C(=O)[C@@H](C)[C@H](O)[C@@H](C)CC(C)=CC(=O)O,active: 0.196 µM
3,COc1ccnc2[nH]cc(C(=O)C(=O)N3CCN(C(=O)c4ccccc4)C[C@@H]3C)c12,inactive
4,COc1ccccc1OCC(O)COC(N)=O (configuration not stated),inactive
5,O=C1NC(=O)C(=Cc2ccc3nccc(-c4ccncc4)c3c2)S1,active: 0.418 µM
6,CO[C@@H]1[C@@H](O)[C@H](O)[C@@H](n2c3c(Cl)cccc3c3c4c(c5c6cccc(Cl)c6[nH]c5c32)C(=O)NC4=O)O[C@@H]1CO,"inconclusive: 2.64 µM [inhibitor, partial curve]"
7,COc1cc(Nc2ncc(F)c(Nc3ccc4c(n3)N(COP(=O)(O)O)C(=O)C(C)(C)O4)n2)cc(OC)c1OC,active: 1.66 µM and active: 2.31 µM and active: 13 µM
8,CCc1cc2c(cc1N1CCC(N3CCOCC3)CC1)C(C)(C)c1[nH]c3cc(C#N)ccc3c1C2=O,"inconclusive: 14.8 µM [inhibitor, partial curve, poor fit] and inconclusive: 3.17 µM [inhibitor, full curve]"
9,O=C(O)Cn1nnc(-c2cc(N3CCC(Oc4cc(F)ccc4Br)CC3)no2)n1,"inconclusive: 6.62 µM [inhibitor, full curve] and inconclusive: 3.66 µM [inhibitor, full curve]"
10,c1cc(CN2CCCNCCNCCCNCC2)ccc1CN1CCCNCCNCCCNCC1,inactive
11,CC[C@H](C)n1cc(C)c2c(C(=O)NCc3c(C)cc(C)[nH]c3=O)cc(-c3ccc(N4CCNCC4)nc3)cc21,"inconclusive: 11.8 µM [inhibitor, single point]"
12,CCN[C@H]1C[C@H](C)S(=O)(=O)c2sc(S(N)(=O)=O)cc21,"inactive and inconclusive: 37.2 µM [inhibitor, single point]"
13,C[N+](C)([O-])CCNc1ccc(NCC[N+](C)(C)[O-])c2c1C(=O)c1c(O)ccc(O)c1C2=O,"inconclusive: 33.2 µM [inhibitor, single point]"
14,CC(C)(O)CC(=O)NCCn1ccc2ncnc(Nc3ccc(Oc4cccc(C(F)(F)F)c4)c(Cl)c3)c21,"inconclusive: 33.2 µM [inhibitor, single point] and inconclusive: 18.4 µM [inhibitor, single point]"
15,CC1=C(CC(=O)O)c2cc(F)ccc2C1=Cc1ccc(S(C)=O)cc1 (configuration not stated),inactive
16,Oc1cc(-c2nc(-c3ccccc3)[nH]c2-c2ccncc2)ccc1Cl,"inconclusive: 26.4 µM [inhibitor, single point] and inconclusive: 23.1 µM [inhibitor, single point]"
17,Cc1cc(Cl)ccc1OCCCC(=O)NO,"inconclusive: 37.2 µM [inhibitor, single point]"
18,O=C(Nc1cccc(C(F)(F)F)c1)Nc1cc(S(=O)(=O)NC2CC2)ccc1-c1ccsc1,"inconclusive: 33.2 µM [inhibitor, single point] and inconclusive: 18.4 µM [inhibitor, single point]"
